Screen size: about 39,000 compounds; about 220 (0.56%) showed activity. This is one part of the list.

The values that follow come from the supplement of paper PMC9446081.
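Note: static incubation at 37 °C against the wild-type strain, values averaged over two biological replicates.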

The assay deals with Escherichia coli K-12 BW25113. Kind of assay: relative growth (OD600 normalised to plate interquartile mean) (fraction); higher = less growth inhibition, active = 0.2 or less. To be noted: 50 µM; LB; incubation time: overnight (16-24 h).
As to `Cc1noc(C)c1S(=O)(=O)N(C)C[C@H]1Oc2ccc(NS(=O)(=O)c3cccs3)cc2CC(=O)N([C@H](C)CO)C[C@H]1C`, the relative growth is inactive: 0.998.

Take `O=C(N[C@@H]1CC[C@H](CCNS(=O)(=O)c2ccc(F)cc2)O[C@H]1CO)C1CC1`: the relative growth was inactive: 0.984.

Consider `COc1ccc(cc1)S(=O)(=O)N1C[C@]2(CN(Cc3ccncc3)[C@@H](CO)c3[nH]c4cc(ccc4c32)OC)C1`, for which the relative growth is inactive: 1.

For `C[C@@H]1CCCCO[C@H](CN(C)Cc2ccc3c(c2)OCO3)[C@@H](C)CN([C@H](C)CO)C(=O)c2cc(NC(=O)Nc3ccc(C(F)(F)F)cc3)ccc2O1`, the relative growth is inactive: 1.05. The figure for `CCS(=O)(=O)N1CC[C@]2(CC1)CN([C@H](CO)c1[nH]c3cc(ccc3c12)OC)S(=O)(=O)c1cccc(c1)OC` is inactive: 1.01; for `C[C@H]1CCCCO[C@H](CN(C)Cc2ccncc2)[C@@H](C)CN([C@@H](C)CO)C(=O)c2cc(NC(=O)C3CCCCC3)ccc2O1` it is inactive: 0.956; for `C[C@@H]1CCCCO[C@@H](CN(C)Cc2ccc(C(=O)O)cc2)[C@@H](C)CN([C@@H](C)CO)C(=O)c2cc(NC(=O)Nc3ccc(C(F)(F)F)cc3)ccc2O1` it is inactive: 0.953.

As for `C[C@H](CO)N1C[C@H](C)[C@H](CN(C)Cc2cccc(C(F)(F)F)c2)Oc2ncc(-c3ccccc3)cc2C1=O`, the relative growth was inactive: 1.01. The figure for `O=C(N[C@@H]1CC[C@@H](CC(=O)N2CCOCC2)O[C@@H]1CO)c1ccc2c(c1)OCO2` is inactive: 1.02. Take `CCS(=O)(=O)N1CC[C@]2(CC1)CN(Cc1ccc3c(c1)OCO3)[C@H](CO)c1c2c2ccc(cc2n1C)OC`: the relative growth is inactive: 1.03. The figure for `COc1ccc(NC(=O)N(C)C[C@H]2OCCCC[C@@H](C)Oc3ccc(NC(=O)Nc4ccc5c(c4)OCO5)cc3C(=O)N([C@H](C)CO)C[C@H]2C)cc1` is inactive: 1.01. The figure for `COc1ncc(NC(=O)C2CC2)c(OC)n1` is inactive: 1.03.

With `CN(C)CCCNC(=O)[C@@H]1[C@@H](CO)[C@@H]2Cn3c(ccc(-c4ccncc4)c3=O)[C@H]1N2C(=O)C1CC1`, the relative growth is inactive: 0.938. With `C[C@H]1CN([C@@H](C)CO)C(=O)c2cc(NC(=O)Nc3ccc(F)cc3)ccc2O[C@@H]1CN(C)C(=O)Nc1cccc2ccccc12`, the relative growth was inactive: 0.953.

For `C[C@H]1CN([C@@H](C)CO)C(=O)c2cc(C#Cc3ccccc3F)cnc2O[C@@H]1CN(C)S(=O)(=O)c1ccccc1`, the relative growth is inactive: 1.02.

For the molecule `C[C@@H]1CCCCO[C@@H](CN(C)Cc2ccc(C(F)(F)F)cc2)[C@@H](C)CN([C@H](C)CO)C(=O)c2cc(NC(=O)CCCN(C)C)ccc2O1`, the relative growth was inactive: 0.948. As to `Cc1ccc(S(=O)(=O)N(C)C[C@H]2OCCCC[C@@H](C)Oc3ccc(NC(=O)Nc4ccc(C(F)(F)F)cc4)cc3C(=O)N([C@@H](C)CO)C[C@H]2C)cc1`, the relative growth was inactive: 1.02. As for `C[C@@H]1CN([C@@H](C)CO)C(=O)c2cc(NC(=O)Cc3ccccc3)ccc2O[C@@H](C)CCCCO[C@@H]1CN(C)Cc1ccncc1`, the relative growth was inactive: 0.973. The figure for `CCS(=O)(=O)Nc1ccc2c(c1)C(=O)N(C)[C@@H]1CC[C@H](CC(=O)NCCCN3CCOCC3)O[C@@H]1CO2` is inactive: 1.02; for `C[C@H]1CN([C@@H](C)CO)C(=O)c2cc(C#Cc3cccc(F)c3)cnc2O[C@@H]1CN(C)C(=O)C1CCOCC1` it is inactive: 0.99; for `C[C@@H]1CCCCO[C@@H](CN(C)Cc2ccc(C(F)(F)F)cc2)[C@H](C)CN([C@@H](C)CO)C(=O)c2cc(NC(=O)Nc3ccc(C(F)(F)F)cc3)ccc2O1` it is inactive: 1. The figure for `C[C@H](CO)N1C[C@H](C)[C@H](CN(C)C(=O)c2cccnc2)Oc2cc(C#CC3(O)CCCC3)ccc2S1(=O)=O` is inactive: 1; for `COCC#Cc1cnc2c(c1)C(=O)N([C@H](C)CO)C[C@H](C)[C@@H](CN(C)S(=O)(=O)c1cn(C)cn1)O2` it is inactive: 0.984; for `O=C1CCCSc2ccccc21` it is inactive: 0.967.

With `Cc1ccc(S(=O)(=O)Nc2ccc3c(c2)C(=O)N([C@H](C)CO)C[C@H](C)[C@@H](CN(C)S(=O)(=O)c2ccc(Cl)cc2)OCCCC[C@H](C)O3)cc1`, the relative growth was inactive: 1.02. For `CCC(=O)Nc1ccc2c(c1)OC[C@H](C)N(C(=O)CN1CCOCC1)C[C@H](C)[C@@H](OC)CN(C)C2=O`, the relative growth is inactive: 0.967. The figure for `CCNC(=O)N1CCCC[C@@H]1CO` is inactive: 1.02; for `Cc1noc(C)c1NC(=O)Nc1ccc2c(c1)C(=O)N([C@H](C)CO)C[C@@H](C)[C@@H](CN(C)C(=O)C1CCCCC1)OCCCC[C@H](C)O2` it is inactive: 0.838; for `C[C@@H]1CN([C@@H](C)CO)C(=O)c2cc(NC(=O)C3CCCCC3)ccc2O[C@@H](C)CCCCO[C@@H]1CN(C)C(=O)Nc1ccc(F)cc1` it is inactive: 0.983. In the case of `Cc1noc(C)c1NC(=O)Nc1ccc2c(c1)CC(=O)N([C@H](C)CO)C[C@H](C)[C@H](CN(C)CC1CC1)O2`, the relative growth is inactive: 1.

With `C[C@@H]1CN([C@H](C)CO)S(=O)(=O)c2ccc(-c3cncnc3)cc2O[C@@H]1CN(C)C(=O)c1cccc(F)c1`, the relative growth was inactive: 1.01.

Regarding `Cc1ccc(S(=O)(=O)Nc2cccc3c2O[C@H](CN(C)C(=O)NC(C)C)[C@H](C)CN([C@H](C)CO)C3=O)cc1`, the relative growth was inactive: 1.02. Consider `S=c1[nH]c2ccccc2s1`, for which the relative growth was inactive: 0.878. The figure for `CC(C)(N)CO.Cn1c(=O)c2[nH]c(Br)nc2n(C)c1=O` is inactive: 1.03. The figure for `C[C@@H]1CCCCO[C@@H](CN(C)C(=O)Cc2ccccc2)[C@H](C)CN([C@H](C)CO)C(=O)c2cc(NS(=O)(=O)c3cccs3)ccc2O1` is inactive: 1.01; for `CCS(=O)(=O)N1C[C@]2(C1)CN([C@@H](CO)c1c2c2ccc(cc2n1C)OC)C(=O)Nc1c(noc1C)C` it is inactive: 0.994. The figure for `COc1ccc(NC(=O)N(C)C[C@@H]2OCCCC[C@@H](C)Oc3ccc(NC(=O)Nc4c(C)noc4C)cc3C(=O)N([C@@H](C)CO)C[C@H]2C)cc1` is inactive: 1; for `COc1ccc(S(=O)(=O)N(C)C[C@H]2Oc3c(NC(=O)c4cnccn4)cccc3C(=O)N([C@@H](C)CO)C[C@@H]2C)cc1` it is inactive: 1.01.
